Sequences and labels used below:
B1: RNF6 (enzyme, UniProt Q9Y252 1-685)
chain: MNQSRSRSDGGSEETLPQDHNHHENERRWQQERLHREEAYYQFINELNDEDYRLMRDHNLLGTPGEITSEELQQRLDGVKEQLASQPDLRDGTNYRDSEVPRESSHEDSLLEWLNTFRRTGNATRSGQNGNQTWRAVSRTNPNNGEFRFSLEIHVNHENRGFEIHGEDYTDIPLSDSNRDHTANRQQRSTSPVARRTRSQTSVNFNGSSSNIPRTRLASRGQNPAEGSFSTLGRLRNGIGGAAGIPRANASRTNFSSHTNQSGGSELRQREGQRFGAAHVWENGARSNVTVRNTNQRLEPIRLRSTSNSRSRSPIQRQSGTVYHNSQRESRPVQQTTRRSVRRRGRTRVFLEQDRERERRGTAYTPFSNSRLVSRITVEEGEESSRSSTAVRRHPTITLDLQVRRIRPGENRDRDSIANRTRSRVGLAENTVTIESNSGGFRRTISRLERSGIRTYVSTITVPLRRISENELVEPSSVALRSILRQIMTGFGELSSLMEADSESELQRNGQHLPDMHSELSNLGTDNNRSQHREGSSQDRQAQGDSTEMHGENETTQPHTRNSDSRGGRQLRNPNNLVETGTLPILRLAHFFLLNESDDDDRIRGLTKEQIDNLSTRHYEHNSIDSELGKICSVCISDYVTGNKLRQLPCMHEFHIHCIDRWLSENCTCPICRQPVLGSNIANNG

Sequences of proteins named here, by UniProt entry; tags and fusion partners are left off.
UniProt Q00987: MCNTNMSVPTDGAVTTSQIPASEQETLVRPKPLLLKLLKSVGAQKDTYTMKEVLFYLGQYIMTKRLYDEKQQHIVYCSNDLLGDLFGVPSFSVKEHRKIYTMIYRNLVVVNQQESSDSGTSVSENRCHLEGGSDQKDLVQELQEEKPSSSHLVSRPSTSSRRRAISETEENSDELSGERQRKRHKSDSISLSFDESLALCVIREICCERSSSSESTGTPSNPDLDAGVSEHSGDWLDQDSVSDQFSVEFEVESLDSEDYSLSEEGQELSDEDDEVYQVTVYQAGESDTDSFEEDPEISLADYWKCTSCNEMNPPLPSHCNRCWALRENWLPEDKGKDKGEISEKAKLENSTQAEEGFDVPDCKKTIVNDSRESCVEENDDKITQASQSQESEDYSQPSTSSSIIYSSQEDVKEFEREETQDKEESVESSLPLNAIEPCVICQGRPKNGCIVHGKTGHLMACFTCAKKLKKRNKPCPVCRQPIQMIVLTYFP
UniProt P46934: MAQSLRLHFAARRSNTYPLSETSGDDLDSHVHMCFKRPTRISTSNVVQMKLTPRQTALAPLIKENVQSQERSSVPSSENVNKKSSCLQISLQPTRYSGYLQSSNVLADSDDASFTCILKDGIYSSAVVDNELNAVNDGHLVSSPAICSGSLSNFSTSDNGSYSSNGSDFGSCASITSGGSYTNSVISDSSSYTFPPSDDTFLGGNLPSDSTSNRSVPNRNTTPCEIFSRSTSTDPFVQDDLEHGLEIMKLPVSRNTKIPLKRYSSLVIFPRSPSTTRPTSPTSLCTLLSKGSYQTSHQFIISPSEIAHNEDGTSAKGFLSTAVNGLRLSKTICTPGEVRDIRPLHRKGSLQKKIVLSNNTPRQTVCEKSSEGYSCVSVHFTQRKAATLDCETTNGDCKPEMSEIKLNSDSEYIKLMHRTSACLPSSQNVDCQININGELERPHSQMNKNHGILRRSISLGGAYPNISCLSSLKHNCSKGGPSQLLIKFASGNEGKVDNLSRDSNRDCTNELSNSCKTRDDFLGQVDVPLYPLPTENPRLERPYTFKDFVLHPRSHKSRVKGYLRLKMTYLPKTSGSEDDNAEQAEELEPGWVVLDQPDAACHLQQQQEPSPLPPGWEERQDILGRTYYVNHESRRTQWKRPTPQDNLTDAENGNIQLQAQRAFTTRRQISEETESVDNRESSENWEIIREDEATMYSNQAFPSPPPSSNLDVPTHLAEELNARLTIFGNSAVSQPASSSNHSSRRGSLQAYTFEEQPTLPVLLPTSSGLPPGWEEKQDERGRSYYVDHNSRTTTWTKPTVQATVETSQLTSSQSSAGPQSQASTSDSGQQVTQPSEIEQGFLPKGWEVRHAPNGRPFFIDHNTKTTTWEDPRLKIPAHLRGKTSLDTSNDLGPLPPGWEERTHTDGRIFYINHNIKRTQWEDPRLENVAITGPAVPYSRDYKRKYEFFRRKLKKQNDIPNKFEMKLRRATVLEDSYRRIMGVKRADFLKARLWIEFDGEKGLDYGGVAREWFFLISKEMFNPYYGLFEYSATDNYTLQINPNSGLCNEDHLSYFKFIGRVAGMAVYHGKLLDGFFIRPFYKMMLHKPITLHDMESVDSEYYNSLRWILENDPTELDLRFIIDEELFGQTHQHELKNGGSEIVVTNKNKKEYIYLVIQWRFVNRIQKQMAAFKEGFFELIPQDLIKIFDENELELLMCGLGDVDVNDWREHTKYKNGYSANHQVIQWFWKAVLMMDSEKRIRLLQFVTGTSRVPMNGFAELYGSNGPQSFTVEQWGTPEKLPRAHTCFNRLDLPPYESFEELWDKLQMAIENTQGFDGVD
UniProt Q9HAU4: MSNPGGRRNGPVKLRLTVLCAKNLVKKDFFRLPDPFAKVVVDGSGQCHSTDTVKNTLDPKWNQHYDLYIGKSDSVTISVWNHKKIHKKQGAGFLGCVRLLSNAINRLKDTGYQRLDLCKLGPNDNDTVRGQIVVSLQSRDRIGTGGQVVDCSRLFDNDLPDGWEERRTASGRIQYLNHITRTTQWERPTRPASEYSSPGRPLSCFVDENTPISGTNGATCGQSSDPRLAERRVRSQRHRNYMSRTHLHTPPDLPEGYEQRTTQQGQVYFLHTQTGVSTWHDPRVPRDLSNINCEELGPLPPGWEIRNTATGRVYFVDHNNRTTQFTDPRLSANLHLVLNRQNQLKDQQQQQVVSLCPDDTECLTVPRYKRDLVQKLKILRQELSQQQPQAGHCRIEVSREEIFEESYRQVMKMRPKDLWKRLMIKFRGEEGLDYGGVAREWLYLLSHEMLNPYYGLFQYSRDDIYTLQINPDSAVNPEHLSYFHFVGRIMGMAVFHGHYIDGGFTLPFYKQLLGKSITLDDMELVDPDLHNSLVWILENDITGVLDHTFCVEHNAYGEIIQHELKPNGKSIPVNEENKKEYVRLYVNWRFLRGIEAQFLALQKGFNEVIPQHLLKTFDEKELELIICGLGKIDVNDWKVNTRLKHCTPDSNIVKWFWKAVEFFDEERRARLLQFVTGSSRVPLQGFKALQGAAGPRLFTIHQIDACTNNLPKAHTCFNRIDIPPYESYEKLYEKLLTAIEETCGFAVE
UniProt Q86TM6: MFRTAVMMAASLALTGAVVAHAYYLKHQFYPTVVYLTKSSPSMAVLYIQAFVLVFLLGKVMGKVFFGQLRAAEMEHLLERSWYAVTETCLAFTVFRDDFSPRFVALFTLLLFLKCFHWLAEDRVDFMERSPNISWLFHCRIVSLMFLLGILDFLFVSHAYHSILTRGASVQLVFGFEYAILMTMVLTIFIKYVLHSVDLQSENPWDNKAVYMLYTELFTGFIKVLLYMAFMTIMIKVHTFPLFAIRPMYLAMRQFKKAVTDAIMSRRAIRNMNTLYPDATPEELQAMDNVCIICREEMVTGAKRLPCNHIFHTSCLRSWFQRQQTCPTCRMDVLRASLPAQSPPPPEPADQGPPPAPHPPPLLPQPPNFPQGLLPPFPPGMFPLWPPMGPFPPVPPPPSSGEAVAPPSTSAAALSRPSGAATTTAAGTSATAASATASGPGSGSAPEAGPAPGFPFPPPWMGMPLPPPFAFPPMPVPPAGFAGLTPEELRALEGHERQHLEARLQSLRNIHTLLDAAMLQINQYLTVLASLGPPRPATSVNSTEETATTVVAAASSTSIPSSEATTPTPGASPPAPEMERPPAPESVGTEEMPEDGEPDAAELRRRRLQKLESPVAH

No constants are given. Whether binding was seen depends on the method and setting. Binding seen in cells or lysates may run through a third protein. Some results given as binding are weak or reduced against the parent protein; the word gives no strength.

In the assay the target is T1, SIX3 (human (endogenous in A549)) (UniProt O95343).
T1 sequence: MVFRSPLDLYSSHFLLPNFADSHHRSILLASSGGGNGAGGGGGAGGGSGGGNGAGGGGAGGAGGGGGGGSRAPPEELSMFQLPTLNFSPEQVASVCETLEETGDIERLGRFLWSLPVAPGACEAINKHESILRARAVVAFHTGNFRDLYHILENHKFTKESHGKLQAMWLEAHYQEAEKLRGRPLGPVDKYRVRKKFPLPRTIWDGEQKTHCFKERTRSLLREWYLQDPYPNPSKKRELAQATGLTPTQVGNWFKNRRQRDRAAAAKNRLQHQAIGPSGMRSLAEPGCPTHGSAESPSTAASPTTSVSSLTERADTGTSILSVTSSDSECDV
Kind of assay: co-IP; A549 cell lysates, endogenous proteins; precipitated with anti-SIX3 or control IgG antibody, immunoprecipitates washed at least five times and immunoblotted with antibodies to E3 ligases. Background: In western blotting, separated proteins are transferred to a membrane and probed.
For the molecule “MDM2 (from UniProt Q00987 1-491) (enzyme)”, the binding entry was “no binding”.
To “NEDD4 (from UniProt P46934 1-1319) (enzyme)” belongs “no binding”; to “SMURF2 (from UniProt Q9HAU4 1-748) (enzyme)”, “binds”.
To “SYVN1 (from UniProt Q86TM6 1-617) (enzyme)” belongs “no binding”; to B1, “no binding”.

Source of the values: publication PMC7803540.
